# Test results reported in article PMC12136788.
# This is one part of the list.
# T1: UNK ZnF1-3 (human, UniProt Q9C0B0 31-174)
# T1 sequence: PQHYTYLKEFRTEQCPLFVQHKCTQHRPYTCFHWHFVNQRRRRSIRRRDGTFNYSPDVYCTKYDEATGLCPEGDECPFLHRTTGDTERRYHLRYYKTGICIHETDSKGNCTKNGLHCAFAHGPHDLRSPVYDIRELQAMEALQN
# B1: 30840609_30844903_216_CDS_ENSMUSG00000025607_ENSMUST00000048774|mouse|control|control (ssRNA)
# RNA: GGGAGUUCUACAGUCCGACGAUCUUGAAACAAUCGAGUCAUUGCAAAGAAGGCUUCUGUAGCUUCCAUAGUUCCGAAGUGUUCACCCUGGUUGAGUAAGUAAAGAAUCUUUGUCAAGAUAUGCAAGCAUCUUCUUGGAUUGAUCAACAGAGGAUUGAGCAUCA
# B2: chr16:94690093:94690094:+_ENSMUSG00000040785_ENSMUST00000117648|mus_hu|mus_mus_mus_hu_True|78_108 (ssRNA)
# RNA: GGGAGUUCUACAGUCCGACGAUCGGGGACUCCUGUGGGACACACAGCCUCGAUUCCGGUAAAAAAAAGUCUUAGUCGAUACUAAUUAAAAAGUGUUAAUGAUUUUUGAAAAUCAGAUUACAUCUAUAAAAGAUGAAAAGCAAACAACAGAGGAUUGAGCAUCA
# B3: chr17:38438176:38438177:+_ENSG00000171475_ENST00000323571|hu_hu|FALSE|FALSE (ssRNA)
# RNA: GGGAGUUCUACAGUCCGACGAUCCACCUUGACCACAUGGCCAGGGACUGAGAUUCAAUGGGGAAAGAAAGACUGUAGCUGGAAUGUGAAGAAUUUGAUUUGCAGUUGAUUGCAGGUUGGGUUUCCGGAAGGGCAGACAGCUCACAACAGAGGAUUGAGCAUCA
# B4: chr4:42069135:42069136:+_ENSG00000014824_ENST00000513699|hu_mus|FALSE|FALSE (ssRNA)
# RNA: GGGAGUUCUACAGUCCGACGAUCAGCCGCUAUUAUCACUCCUAAGACAGCUGCAGUGUCCUCCAAUAGAAUAACAUUUGUACUCGGAUCACGACUUUCCAUGACAUACUUAUAAAAUGUCGUGCCCUUGGCCUGCGCGCUCCUCAACAGAGGAUUGAGCAUCA
# B5: 66481216_66481824_669_CDS_ENSG00000173898_ENST00000309996|human|control|control (ssRNA)
# RNA: GGGAGUUCUACAGUCCGACGAUCCCGGUGUUUAUGCACGAUGGCGUUGAAAGCUAGUCCAUCUCUCCAGCUGGUGGUGAAGUUGUGUACAUUGACGUUGGGAUAACCUGCAGUCUUCAUCUGGCACCACAGAAGCAGGGCAUCCAACAGAGGAUUGAGCAUCA
# B6: 163842845_163842965_1594_3pUTR_ENSMUSG00000018326_ENSMUST00000018470|mouse|control|control (ssRNA)
# RNA: GGGAGUUCUACAGUCCGACGAUCAGCCCUCAACCACAGGCAGAAUUACUGUGAGUUACCAAACUCAGGAUGCCGGUGGUCAGCAUCUCACCAAGUCCCAGCAUCACCACAGAAUCUCUAGAACUUUCUGUACAGCUUUACAACCAACAGAGGAUUGAGCAUCA
# B7: chr1:39494564:39494565:+_ENSG00000168653_ENST00000372967|hu_hu|hu_hu_hu_mus_True|48_88 (ssRNA)
# RNA: GGGAGUUCUACAGUCCGACGAUCAUGCAUUCGCCUCAUCGUUUUGUGCCGAAGCAAGCACUCUUCGAAGUCAUCGAACUCUAUCUUGCACUCUUUCUUCGCCCGGGUCCCACCGAUCCCGUGUGCACACUCUAUCCACUCUUUCAACAGAGGAUUGAGCAUCA
# B8: chr4:147104108:147104109:+_ENSG00000164167_ENST00000515311|hu_hu|FALSE|FALSE (ssRNA)
# RNA: GGGAGUUCUACAGUCCGACGAUCCGAUAAUCCACUCCAGAAUUUAAUUUUACCACAACUGGUCGUCCGAUGAUUUGCUUUAAGAAGUCACUAGGGGUUUGCUUCCGAAGACUCAUUUUAACAAUCCUCGCCGGCGGGAACCAGCAACAGAGGAUUGAGCAUCA
# B9: chr7:135612270:135612271:-_ENSG00000105887_ENST00000393085|hu_mus|hu_hu_hu_mus_False|1_98 (ssRNA)
# RNA: GGGAGUUCUACAGUCCGACGAUCGUUUUUUUCUGAGUAAGUAUUACGUACUUCAGUGGAAAACAAAACUUAACCUUUUAUUAAUGCGUGUUGUACCAAAAGCAGACAUUUUAGCUUCAUUUAUUCAAAAAUAUUAAGAACAUUCAACAGAGGAUUGAGCAUCA
# B10: chr11:30433043:30433044:-_ENSG00000066382_ENST00000358117|hu_hu|FALSE|FALSE (ssRNA)
# RNA: GGGAGUUCUACAGUCCGACGAUCUCACAUUCCAAUAGGGCAUUUAGAGCUUCAGGAACCCUGUGGGUUUGGAAGGUCAAAUAUAAUUGGAGGGUUGGUCGGUUGAAAGCUGACUGUACACGUCGAGGCAUUGAUGUACGUUGUCAACAGAGGAUUGAGCAUCA
# B11: chr7:149068622:149068623:-_ENSMUSG00000025139_ENSMUST00000001950|mus_hu|mus_mus_mus_hu_False|18_98 (ssRNA)
# RNA: GGGAGUUCUACAGUCCGACGAUCGUGAGGCCUCUGAGUGAGGUUCCUGGUCUGUCCUGGGUUAGAGUUGUUAAUAUCACGGAACAUACCAUCUAGAACGUUCCAGUCCCGCCUGACCAUCCACCCUCCAAUGGAGAAGAAAUCCAACAGAGGAUUGAGCAUCA
# B12: chr6:170627217:170627218:+_ENSG00000112584_ENST00000537664|hu_hu|FALSE|FALSE (ssRNA)
# RNA: GGGAGUUCUACAGUCCGACGAUCGUUACCUUUUUUGUCAAAGUUCUCUUUUACAGAGGUGUAGGACGAUAAGCAUUUGUACCUAAAGCUUUCAAACAUGCCCUCUGGGAUUAUGUCGUUGCCAAGGAGGCAGGCCAGAAGAGGCAACAGAGGAUUGAGCAUCA
# B13: chr9:45776876:45776877:-_ENSMUSG00000003131_ENSMUST00000172450|mus_hu|FALSE|FALSE (ssRNA)
# RNA: GGGAGUUCUACAGUCCGACGAUCGAUCAGUUCAUGCAGGGGUUUGCAGAUCUUUGCAUAGCCCCCUCCUGUCAGAUGCAGAAAAUCAAACAUGUCGUGGCAGGAGAUGGCACCGUCCGAGUGCACAAAACCCCCGUCGGUAUCCAACAGAGGAUUGAGCAUCA
# B14: chr6:40197388:40197389:+_ENSMUSG00000057716_ENSMUST00000061740|mus_mus|mus_mus_mus_hu_False|58_98 (ssRNA)
# RNA: GGGAGUUCUACAGUCCGACGAUCGAGACACUGGGGUGGAUGGCACCCACCUCUGUUUGGGUGCUAGCCACUAAGACAGCUAUUUUGGGAUUCAUGGCCUUGAAUAUCAAGAGGGAAAGGAAGAGGAUGGAAAGAGUCAAGAGUCAACAGAGGAUUGAGCAUCA
# B15: chr4:184614817:184614818:+_ENSG00000168538_ENST00000334690|hu_mus|FALSE|FALSE (ssRNA)
# RNA: GGGAGUUCUACAGUCCGACGAUCAGUGAGCUUCACAUCCCUGAUUGGGGACUUCUCGUGGGACUGAACAGUGACAACCAAACAGUACAUCUCAUUCAUUAGAGCAGGGGGCUCGUGUCGCAGGUGGACAGAGAUGUUUGGGACCAACAGAGGAUUGAGCAUCA
# B16: chr15:31385891:31385892:-_ENSMUSG00000039100_ENSMUST00000090227|mus_mus|FALSE|FALSE (ssRNA)
# RNA: GGGAGUUCUACAGUCCGACGAUCAUUCACUCCUAAACAGACACCCCUAGGCCUUAGUCACUCAUUUCCAUCUAAGGUUCUAUAGGAUUGUCAUGAUUACAAAAUGAGGCACUCAGACAGAUAGACAGGAAUGGAGACAUACAUCAACAGAGGAUUGAGCAUCA
# B17: chr7:151048522:151048523:+_ENSG00000013374_ENST00000566856|hu_hu|motif|central (ssRNA)
# RNA: GGGAGUUCUACAGUCCGACGAUCUUGCUUCUUAUUUAUGACAAUUUUGAUAUAAUUUUCUUGAAGUCCAAAGGUUUCAGCGGUUUUGGACCUCAGUUCUCUGCCAGUGAUGUGCAAUCGGGUCUCCAACAAGUUUUUCCUAUCCAACAGAGGAUUGAGCAUCA
# B18: 13527528_13541243_6213_CDS_ENSMUSG00000020576_ENSMUST00000042953|mouse|control|control (ssRNA)
# RNA: GGGAGUUCUACAGUCCGACGAUCUUCAGCACAGAAAGGCCGCAGCCACUGCAGCACGUCUUCAGCAGACACCAGCUCCUCCCCAUUGUCCACACUGGUGCGGACUGCCCCAACAACACCUUCUAGGACCUGGAGGGGGUCGCGCAACAGAGGAUUGAGCAUCA
# B19: chr16:45382771:45382772:-_ENSMUSG00000022661_ENSMUST00000163230|mus_mus|mus_mus_mus_hu_True|88_88 (ssRNA)
# RNA: GGGAGUUCUACAGUCCGACGAUCCUGGGUCAUGUUAUAAGACAAAUGGAUAGGGAGGGCAUGCUUCUCAAAAAAUGUGAGCUAUUGUCUAAGACUAACAAUAUUUAUCUAGCUAUAAAAAUAAGUUAAAUGAAUAAGUUAAGACAACAGAGGAUUGAGCAUCA
# B20: chr20:57485784:57485785:+_ENSG00000087460_ENST00000306090|hu_hu|FALSE|FALSE (ssRNA)
# RNA: GGGAGUUCUACAGUCCGACGAUCGUCACGGCAGUCGUUGAACACACGGCGGAUGUUCUCAGUGUCCACAGCGCAGGUGAAAUGAGGGUAGCAGUAGUGACGCCCAUCUCCACUGGCAGUGCUGAUCCUCAGAAACUCAUCUCGCAACAGAGGAUUGAGCAUCA
# B21: chr2:42509997:42509998:+_ENSG00000143924_ENST00000318522|hu_mus|hu_hu_hu_mus_True|1_78 (ssRNA)
# RNA: GGGAGUUCUACAGUCCGACGAUCUCGCUGAGUCCUCUCCUCAUAAUUAAACAGGACUACUACUGAUGCGAUAAAAUAAACUAUCUCCCCUGUGGGAAGCAGGUAUACAUUCGCUCUACAGUCCUUUCCUCGAUAACCAUAUGCCAACAGAGGAUUGAGCAUCA
# B22: chr4:103806524:103806525:+_ENSG00000145354_ENST00000273986|hu_hu|motif|central (ssRNA)
# RNA: GGGAGUUCUACAGUCCGACGAUCUUCAUUGUGUUUAUUAUGUGAACCAUCGCAGGCAGGAAACGUUUUAGAACGCCAACACCGGCAAUAAGCUGCUUUAGUAAGACACAAAUCUUCAAUGUUUAUUUCAUUCACUACUUUCGGCAACAGAGGAUUGAGCAUCA
# Target: T1, UNK ZnF1-3
# Test: nsRBNS (natural sequence RNA bind-n-seq); RBNS binding buffer (assumed for nsRBNS): 25 mM Tris pH 7.5, 150 mM KCl, 3 mM MgCl2, 0.01% Triton X-100, 500 ug/ml BSA, 20 U/ml SUPERase-In, 4 C; UNK is unkempt and MSI1 is Musashi-1; names of the RNAs are library labels; protein concentration not given here; high values mean tight binding
row,Binder,binding signal [enrichment R]
1,B1,1.31
2,B2,1.92
3,B3,1.91
4,B4,1.78
5,B5,0.959
6,B6,1.73
7,B7,0.598
8,B8,1.14
9,B9,0.782
10,B10,0.97
11,B11,0.8
12,B12,1.04
13,B13,0.363
14,B14,1.55
15,B15,1.78
16,B16,1.14
17,B17,0.775
18,B18,0.899
19,B19,2.21
20,B20,0.927
21,B21,0.851
22,B22,0.931
